Out of some 270,000 compounds screened, about 5,800 (2.1%) were called active. Inconclusive results, whose numbers are uncertain, are shown with a selection of clear calls. The call rests on the fitted dose curve; in most records, active means well fitted inhibition curve with a large enough effect; inconclusive means small, poorly fitted or top-dose-only effect; inactive means flat fitted curve, though single readings scatter. Potencies beside an inconclusive call are fits to weak or partial responses and may not hold up.
biological target: Microtubule-associated protein tau (Homo sapiens) (UniProt P10636); assay: qHTS for Inhibitors of Tau Fibril Formation, Thioflavin T Binding; conditions: recombinant tau K18 P301L, heparin-induced fibrillization, ThT fluorescence; series mostly up to 57.4 µM; activity, negative = inhibition: at the top concentration; further: nearly all actives have a fitted effect of over 55% in size
Sequence of UniProt P10636 (P10636 whole entry, looked up): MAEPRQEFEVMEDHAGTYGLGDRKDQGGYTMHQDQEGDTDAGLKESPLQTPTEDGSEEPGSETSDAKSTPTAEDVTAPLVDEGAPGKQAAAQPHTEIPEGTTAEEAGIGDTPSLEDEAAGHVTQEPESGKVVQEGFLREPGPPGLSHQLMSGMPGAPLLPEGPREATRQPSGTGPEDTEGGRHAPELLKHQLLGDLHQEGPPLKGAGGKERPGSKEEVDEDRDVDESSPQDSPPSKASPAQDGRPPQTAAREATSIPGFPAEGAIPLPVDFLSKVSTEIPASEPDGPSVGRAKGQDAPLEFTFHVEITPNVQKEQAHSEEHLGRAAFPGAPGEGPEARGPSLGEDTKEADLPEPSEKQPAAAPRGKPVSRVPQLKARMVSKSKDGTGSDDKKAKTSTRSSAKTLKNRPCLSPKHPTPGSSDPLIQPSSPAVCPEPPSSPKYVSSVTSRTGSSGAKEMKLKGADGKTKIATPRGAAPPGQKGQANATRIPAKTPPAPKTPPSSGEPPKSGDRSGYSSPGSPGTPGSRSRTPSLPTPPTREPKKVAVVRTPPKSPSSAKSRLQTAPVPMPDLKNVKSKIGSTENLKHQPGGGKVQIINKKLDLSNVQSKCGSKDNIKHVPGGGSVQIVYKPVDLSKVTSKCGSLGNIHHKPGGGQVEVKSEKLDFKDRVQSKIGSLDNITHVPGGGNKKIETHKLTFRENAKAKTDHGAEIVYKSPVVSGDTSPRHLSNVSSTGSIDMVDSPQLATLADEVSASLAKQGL
How it was run: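 Fibril formation assay: tau K18 P301L at 15 uM with trace Alexa 594 label, heparin inducer 20 uM, pH 7 sodium acetate buffer, 37 C for 6 hr; endpoint ThT signal.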
On the % scale 0 is the no-effect control and ±100 the full control effect; potency means the concentration at half of the fitted maximal effect; tags describe the fitted curve by direction and shape.

Structure (SMILES) | Potency | activity, negative = inhibition
COc1cc(OC)cc(C(=O)Nc2ccc(S(=O)(=O)Nc3cc(C)nc(C)n3)cc2)c1 | inactive | –
Cc1cc(C)n2cc(COc3ccc4ccccc4c3)nc2n1 | inconclusive: 11.2 µM [inhibitor, partial curve] | –
C=C1c2cccc(O)c2C(O)=C2C(=O)[C@]3(O)C(O)=C(C(N)=O)C(=O)C(N(C)C)C3C(O)C12 (some centres undefined) | inconclusive: 20 µM [inhibitor, partial curve] | –
CCOC(=O)c1[nH]c2ccccc2c1NC(=O)c1ccc(OC(C)C)cc1 | – | inactive: -12.1%
CC(C)/C=C1\CC/C(=C\c2ccc(N(C)C)cc2)C1=O | active: 2 µM | –
CCCCNC(=O)C(c1ccc(OCC(=O)OC)c(C(=O)OC)c1)N(CCC1=CCCCC1)C(=O)CCCCCN1C(=O)NC(c2ccc(-c3ccccc3)cc2)C(C(=O)OCc2ccccc2)=C1C (centres undefined) | inconclusive: 0.355 µM [inhibitor, partial curve, poor fit] | –
CCc1nc(-c2ccccc2)c2ccccn12 | inconclusive: 22.4 µM [inhibitor, partial curve] | –
N#Cc1c(-c2ccccc2)[nH]c(=O)[nH]c1=O | – | inactive: 6.24%
O=C(Cn1cc(SCc2cccc(F)c2)c2ccccc21)N1CCOCC1 | inconclusive: 12.6 µM [inhibitor, partial curve] | –
CCCC(=O)OC1=CN(Cc2ccccc2)S(=O)(=O)c2ccccc21 | – | inactive: -15.9%
Cc1ccccc1NC(=O)c1ccc(N/N=C/c2ccccc2O)c([N+](=O)[O-])c1 | inconclusive: 0.708 µM [inhibitor, partial curve] | –
COc1ccc(/C=N/NC(=O)COc2cccc3cccnc23)cc1OC | inconclusive: 2.82 µM [inhibitor, partial curve, poor fit] | –
Cc1nn(C)c(C(=O)Sc2ccccc2)c1[N+](=O)[O-] | inconclusive: 7.08 µM [inhibitor, partial curve] | –
Cc1cc(C)c2sc(N(Cc3cccnc3)C(=O)CCS(=O)(=O)c3ccccc3)nc2c1 | – | inactive: -14.4%
Cc1cccc(CSc2cn(CC(=O)N3CCCCC3)c3ccccc23)c1 | inconclusive: 10 µM [inhibitor, partial curve] | –
CCOC(=O)c1c(NC(C)=O)sc2c(O)cccc12 | inconclusive: 35.5 µM [inhibitor, partial curve] | –
COc1ccc(C(=O)N/N=C/c2ccc3cccc(O)c3n2)cc1 | inconclusive: 4.47 µM [inhibitor, partial curve] | –
CSC1=N/C(=C\c2ccc(Cl)cc2)C(=O)N1N(C)C | inconclusive: 11.2 µM [inhibitor, partial curve] | –
CCOC(=O)c1c(SCC(=O)Nc2nc3ccc(C)cc3s2)nc(=O)[nH]c1C | inconclusive: 0.708 µM [inhibitor, full curve] | –
CCOc1ccc(NC(=O)CSc2nnc(-c3ccccn3)n2C)cc1 | inconclusive: 31.6 µM [inhibitor, partial curve] | –
Cc1ccc(OCC(=O)Nc2ccc3nc(SCC(=O)N4CCCC4)sc3c2)cc1 | inconclusive: 1.41 µM [inhibitor, full curve] | –
Cc1ccc(CNC(=O)c2ccc(-n3c(C)cc4c3CCCC4)cc2)cc1 | inconclusive: 15.8 µM [inhibitor, partial curve] | –
CC1CCN(c2oc(-c3cccs3)nc2S(=O)(=O)c2ccc(Cl)cc2)CC1 | inconclusive: 8.91 µM [inhibitor, partial curve, poor fit] | –

Structure (SMILES) | Potency | activity, negative = inhibition
CC1=C(C(=O)OCc2ccccc2)C(c2ccc([N+](=O)[O-])cc2)NC(=O)N1CCCCCC(=O)O (centres undefined) | inactive | –
COc1ccc2oc(-c3ccc(C)c(NC(=O)c4cccnc4)c3)nc2c1 | inconclusive: 39.8 µM [inhibitor, single point] | –
Cc1nn(CC(=O)NCc2cc3ccccc3[nH]2)c(C)c1[N+](=O)[O-] | – | inactive: -4.01%
CCc1ccc2c(COC(=O)CNS(=O)(=O)c3ccc(NC(C)=O)cc3)cc(=O)oc2c1 | inconclusive: 31.6 µM [inhibitor, single point] | –
CN(C)c1ccc(C(CNC(=O)c2ccc(F)cc2)c2c[nH]c3ccccc23)cc1 (centres undefined) | inconclusive: 28.2 µM [inhibitor, single point] | –
Cc1cccc(C(=O)Nc2nnc(-c3ccncc3)o2)c1 | – | inactive: 0.084%
O=C1CC(/C=C/c2ccccn2)=Nc2ccccc2N1 | inconclusive: 17.8 µM [inhibitor, partial curve] | –
CCOc1cc(/C=C2\N=C(SC)SC2=O)cc([N+](=O)[O-])c1OC(C)=O | active: 3.55 µM | –
CC(=O)Nc1nc(-c2ccccc2)c(-c2ccccc2)o1 | – | inactive: -4.7%
CC(=O)N1c2ccc(S(=O)(=O)N3CCN(c4ccc(C)cc4C)CC3)cc2CC1C (centres undefined) | – | inactive: -3.07%
O=[N+]([O-])c1cc(Cl)ccc1NCCNc1ncc(C(F)(F)F)cc1Cl | inconclusive: 3.98 µM [inhibitor, full curve] | –
CCC(=O)N1N=C(c2ccc(OC)cc2)CC1c1cn(-c2ccccc2)nc1-c1cccs1 (centres undefined) | – | inactive: -7.19%
CC(C)C(c1nnnn1Cc1ccccc1)N1CCc2ccccc2C1 (centres undefined) | inconclusive: 31.6 µM [inhibitor, single point] | –
COc1cc(/C=C/C(=O)Nc2ccc(C(C)=O)cc2)cc(OC)c1OC | inconclusive: 8.91 µM [inhibitor, single point] | –
O=S(=O)(c1ccccc1)C(/C=N\O)/C=C/c1ccccc1 (centres undefined) | inconclusive: 20 µM [inhibitor, single point] | –
Cc1cc2nc(C3CCCN(C(=S)Nc4ccccc4C)C3)[nH]c2cc1C (centres undefined) | – | inactive: -8.29%
CCc1ccc(C(=O)CSc2ncn[nH]2)cc1 | – | inactive: -7.73%
Cc1nnc(SCC(=O)c2ccc(Cl)cc2)s1 | – | inactive: -9.26%
Cc1ccc(C2C(C(=O)c3cc4ccccc4o3)=C(O)C(=O)N2CCN2CCOCC2)o1 (centres undefined) | inconclusive: 28.2 µM [inhibitor, partial curve] | –
CCN1/C(=C2\C(=O)N(C)C(=S)N2C)C=Cc2ccccc21 | inconclusive: 25.1 µM [inhibitor, single point] | –
COc1ccc(C(=S)N2CCN(C)CC2)cc1 | – | inactive: -6.41%
O=C(c1ccccn1)N(CC1CCCO1)C1(C(=O)NC2CCCCC2)CCCCC1 (centres undefined) | inconclusive: 10 µM [inhibitor, partial curve] | –
COc1ccc(C(=O)C[n+]2ccc(-c3nnc4n3CCC4)cc2)cc1 | inconclusive: 2.51 µM [inhibitor, full curve, poor fit] | –

Structure (SMILES) | Potency | activity, negative = inhibition
Cc1cc(NCCC(C)C)n2nc(C)c(-c3ccccc3)c2n1 | inconclusive: 31.6 µM [inhibitor, partial curve] | –
CC1(C)CC(=O)C(N=Nc2ccc(-c3ccccc3)cc2)=C(O)C1 | inconclusive: 1.58 µM [inhibitor, full curve] | –
O=C(CCN1C(=O)C2C3C=CC(C3)C2C1=O)N1CCN(c2ccc([N+](=O)[O-])cc2)CC1 (centres undefined) | inconclusive: 14.1 µM [inhibitor, partial curve] | –
COc1ccc(-c2ccccc2C2NC(C(=O)O)CCC2C)cc1 (centres undefined) | – | inactive: -4.3% [at 11.5 µM]
CCCCOC(=O)Nc1ccc(C)c(Cl)c1 | – | inactive: -11.6%
Cc1ccc(-c2cc(C(=O)N/N=C/c3ccco3)n[nH]2)s1 | inconclusive: 0.631 µM [inhibitor, full curve] | –
CCOc1ccccc1NC(=O)C(CC(C)C)NS(=O)(=O)c1ccc2c(c1)CCN2C(C)=O (centres undefined) | – | inactive: -11.8%
CCOc1ccc(/C=N/OCC(=O)Nc2ccc3c(c2)OCO3)cc1 | inconclusive: 2.51 µM [inhibitor, partial curve] | –
Cc1ccc(N=Cc2c(O)[nH]c3ccccc23)c([N+](=O)[O-])c1 | inconclusive: 0.891 µM [inhibitor, full curve] | –
CCc1ccc(NC(=O)CC2C(=O)OCCN2CC)cc1 (centres undefined) | inconclusive: 12.6 µM [inhibitor, partial curve] | –
COC(=O)C1=CN(C(C)C)C=C(C(=O)OC)C1c1cc(Br)c(OC)c(OC)c1 | inconclusive: 3.98 µM [inhibitor, partial curve] | –
Cn1cc(CN2CCN(c3ccc(Cl)cn3)CC2)c(-c2ccccc2F)n1 | inconclusive: 39.8 µM [inhibitor, partial curve, poor fit] | –
O=c1c2ccccc2nc2n1CC/C2=C/N1CCN(c2cccc(C(F)(F)F)c2)CC1 | inconclusive: 39.8 µM [inhibitor, single point] | –
Cc1[nH]c2ccccc2c1/C=C/c1cc[n+](C)cc1 | inconclusive: 39.8 µM [inhibitor, single point] | –
COc1ccccc1-n1cnc2cc(C(=O)NC3CCCC3)ccc21 | – | inactive: -7.14%
O=C(CSCc1ccco1)c1ccc(Cl)s1 | inconclusive: 25.1 µM [inhibitor, single point] | –
CC1CCc2c(sc(NC(=O)CCCOc3ccc(C(C)(C)C)cc3)c2C(N)=O)C1 (centres undefined) | – | inactive: -8.28%
Cc1ccc(-n2nc(-c3cccnc3)cc2C(=O)N2CCOCC2)c(C)c1 | – | inactive: -16.1%
Cc1ccc2c(c1)-c1c(ssc1=S)C(C)(C)N2C(=O)CSc1nncn1C | inconclusive: 14.1 µM [inhibitor, partial curve] | –
CN(CCOc1ccccc1)C(=O)c1ccc(OC2CCN(C(=O)C3CC3)CC2)cc1 | inconclusive: 3.55 µM [inhibitor, full curve] | –
COc1ccc(CCCc2n[nH]c(=S)o2)cc1C | inconclusive: 3.16 µM [inhibitor, single point] | –
COc1cc(NC(=O)CSc2nccc(C)n2)c(C)cc1[N+](=O)[O-] | inconclusive: 20 µM [inhibitor, single point] | –
CN(C)c1ccc(NC(=O)CCSc2nc(-c3ccco3)cc(C(F)(F)F)n2)cc1 | inconclusive: 8.91 µM [inhibitor, partial curve] | –
